For 34 compounds, IC50 results are on record in patent US20260137703A1, “2-AMINO-PYRIDO[2,3-D]PYRIMIDIN-7(8H)-ONE AND 7-AMINO-1-PYRIMIDO[4,5-D]PYRIMIDIN-2(1 H)-ONE DERIVATIVES AS EGFR INHIBITORS FOR THE TREATMENT OF CANCER” (Cancer Research Technology Limited, priority 2022, published 2026).

Where only a bound is given, the exact number is not on record here.

This assay deals with CtermHisTag-mEGFR Triple Mutant (R797S, L858R, T790M) (Homo sapiens, UniProt P00533, C797S/L858R/T790M). Briefly: TR-FRET probe displacement, EGFR triple mutant. To be noted: 1.25 nM EGFR, 100 nM probe, 30 mins room temperature. For orientation: In TR-FRET formats the signal depends on donor and acceptor labels being close together.
By IC50 is commonly meant the concentration needed to halve the response being measured. Read a low IC50 as higher potency. Consider `C#Cc1c(-c2cc(F)ccc2Cl)c(=O)n(C)c2nc(Nc3ccc(N(C)CCN(C)C)cc3)ncc12` [Example 137, 6-(2-chloro-5-fluorophenyl)-2-[(4-{[2-(dimethylamino)ethyl](methyl)amino}phenyl)amino]-5-ethynyl-8-methylpyrido[2,3-d]pyrimidin-7-one], for which the half-inhibitory concentration (IC50) was less than 20 nM.

As for `C#Cc1c(-c2ccccc2OC)c(=O)n(C)c2nc(Nc3ccc(N(C)CCN(C)C)cc3)ncc12` [Example 138, 2-[(4-{[2-(dimethylamino)ethyl](methyl)amino}phenyl)amino]-5-ethynyl-6-(2-methoxyphenyl)-8-methylpyrido [2,3-d]pyrimidin-7-one], the half-inhibitory concentration (IC50) is 1000 to 50000 nM.

Compound `C#Cc1c(-c2ccncc2Cl)c(=O)n(C)c2nc(Nc3ccc(N(C)CCN(C)C)cc3)ncc12` [Example 139, 6-(3-chloropyridin-4-yl)-2-[(4-{[2-(dimethylamino)ethyl](methyl)amino}phenyl)amino]-5-ethynyl-8-methylpyrido [2,3-d]pyrimidin-7-one] registered an IC50 of less than 20 nM.

Regarding `C#Cc1c(Cc2ccccc2)c(=O)n(C)c2nc(Nc3ccc(N(C)CCN(C)C)cc3OC)ncc12` [Example 140, 6-benzyl-2-[(4-[[2-(dimethylamino)ethyl](methyl)amino]-2-methoxyphenyl)amino]-5-ethynyl-8-methylpyrido[2,3-d]pyrimidin-7-one], the IC50 was 1000 to 50000 nM.

`C#Cc1c(C(=O)NC)c(=O)n(-c2ccccc2)c2nc(Nc3ccccc3OC)ncc12` [Example 141, 5-ethynyl-2-[(2-methoxyphenyl)amino]-N-methyl-7-oxo-8-phenylpyrido[2,3-d]pyrimidine-6-carboxamide]: the IC50 lay within 20 to 100 nM.

As to `C#Cc1c(N)c(=O)n(-c2ccccc2)c2nc(Nc3ccccc3OC)ncc12` [Example 142, 6-amino-5-ethynyl-2-[(2-methoxyphenyl)amino]-8-phenylpyrido[2,3-d]pyrimidin-7-one], the IC50 lay within 100 to 1000 nM.

`C#Cc1c(NC(C)=O)c(=O)n(-c2ccccc2)c2nc(Nc3ccccc3OC)ncc12` [Example 143, N-[5-ethynyl-2-[(2-methoxyphenyl)amino]-7-oxo-8-phenylpyrido[2,3-d]pyrimidin-6-yl]acetamide] gave an IC50 of 20 to 100 nM.

The compound `C#Cc1c(Nc2ccccc2)c(=O)n(C)c2nc(Nc3ccc(N(C)CCN(C)C)cc3)ncc12` [Example 144, 2-[(4-{[2-(dimethylamino)ethyl](methyl)amino}phenyl)amino]-5-ethynyl-8-methyl-6-(phenylamino)pyrido[2,3-d]pyrimidin-7-one] registered a half-maximal inhibitory concentration (IC50) of 20 to 100 nM.

The compound `C#Cc1c(C#N)c(=O)n(-c2ccccc2)c2nc(Nc3ccccc3OC)ncc12` [Example 145, 5-ethynyl-2-[(2-methoxyphenyl)amino]-7-oxo-8-phenylpyrido[2,3-d]pyrimidine-6-carbonitrile] yielded an IC50 of less than 20 nM.

In the case of `C#Cc1c(C(=O)N(C)C)c(=O)n(-c2ccccc2)c2nc(Nc3ccccc3OC)ncc12` [Example 146, 5-ethynyl-2-[(2-methoxyphenyl)amino]-N,N-dimethyl-7-oxo-8-phenylpyrido[2,3-d]pyrimidine-6-carboxamide], the IC50 was in the range of 1000 to 50000 nM.

`C#Cc1c(N(C)C)c(=O)n(-c2ccccc2)c2nc(Nc3ccccc3OC)ncc12` [Example 147, 6-(dimethylamino)-5-ethynyl-2-[(2-methoxyphenyl)amino]-8-phenylpyrido[2,3-d]pyrimidin-7-one] showed a half-maximal inhibitory concentration (IC50) of 100 to 1000 nM.

On to `C#Cc1c(C2CC2)c(=O)n(C)c2nc(Nc3ccc(N4CCN(C)CC4)cc3)ncc12` [Example 148, 6-cyclopropyl-5-ethynyl-8-methyl-2-{[4-(4-methylpiperazin-1-yl)phenyl]amino}pyrido[2,3-d]pyrimidin-7-one], for which the half-maximal inhibitory concentration (IC50) lay in the range of 100 to 1000 nM.

With `C#Cc1c(C)c(=O)n(C)c2nc(Nc3ccc(N4CCN(C)CC4)cc3)ncc12` [Example 149, 5-ethynyl-6,8-dimethyl-2-{[4-(4-methylpiperazin-1-yl)phenyl]amino}pyrido[2,3-d]pyrimidin-7-one], the IC50 lay within 20 to 100 nM.

`C#Cc1c(-c2cccs2)c(=O)n(C)c2nc(Nc3ccc(N4CCN(C)CC4)cc3)ncc12` [Example 150, 5-ethynyl-8-methyl-2-{[4-(4-methylpiperazin-1-yl)phenyl]amino}-6-(thiophen-2-yl)pyrido[2,3-d]pyrimidin-7-one] gave an IC50 of less than 20 nM.

Take `C#Cc1c(C)c(=O)n(-c2ccccc2)c2nc(Nc3ccc(N4CCN(C)CC4)cc3)ncc12` [Example 151, 5-Ethynyl-6-methyl-2-{[4-(4-methylpiperazin-1-yl)phenyl]amino}-8-phenylpyrido[2,3-d]pyrimidin-7-one]: the concentration for half-maximal inhibition (IC50) lay in the range of 20 to 100 nM.

Compound `C=Cc1cc(=O)n(-c2ccccc2)c2nc(Nc3ccccc3OC)ncc12` [Example 152, 5-ethenyl-2-[(2-methoxyphenyl)amino]-8-phenylpyrido[2,3-d]pyrimidin-7-one] came in with a half-inhibitory concentration (IC50) of 1000 to 50000 nM.

Turning to `C=Cc1cc(=O)n(-c2ccccc2OC)c2nc(Nc3ccccc3OC)ncc12` [Example 153, 8-(2-Methoxyphenyl)-2-((2-methoxyphenyl)amino)-5-vinylpyrido[2,3-d]pyrimidin-7(8H)-one], the IC50 was in the range of 1000 to 50000 nM.

`C=Cc1cc(=O)n(-c2ccc(OC)cc2OC)c2nc(Nc3ccccc3OC)ncc12` [Example 154, 8-(2,4-dimethoxyphenyl)-5-ethenyl-2-[(2-methoxyphenyl)amino]pyrido[2,3-d]pyrimidin-7-one] showed a half-inhibitory concentration (IC50) of 1000 to 50000 nM.

In turn, `C=Cc1cc(=O)n(-c2ccc(OC)cc2OC)c2nc(Nc3ccc(N(C)CCN(C)C)cc3)ncc12` [Example 155, 8-(2,4-dimethoxyphenyl)-2-[(4-{[2-(dimethylamino)ethyl](methyl)amino}phenyl)amino]-5-ethenylpyrido[2,3-d]pyrimidin-7-one] came in with a half-inhibitory concentration (IC50) of 100 to 1000 nM.

Consider `C=Cc1cc(=O)n(-c2cccc(OC)c2)c2nc(Nc3ccccc3OC)ncc12` [Example 156, 8-(3-Methoxyphenyl)-2-((2-methoxyphenyl)amino)-5-vinylpyrido[2,3-d]pyrimidin-7(8H)-one], for which the concentration for half-maximal inhibition (IC50) was in the range of 1000 to 50000 nM.

`C=Cc1cc(=O)n(-c2ccc(OC)cc2)c2nc(Nc3ccccc3OC)ncc12` [Example 157, 8-(4-Methoxyphenyl)-2-((2-methoxyphenyl)amino)-5-vinylpyrido[2,3-d]pyrimidin-7(8H)-one]: the IC50 was in the range of 1000 to 50000 nM.

`C=Cc1c(C#N)c(=O)n(-c2ccccc2)c2nc(Nc3ccccc3OC)ncc12` [Example 159, 5-ethenyl-2-[(2-methoxyphenyl)amino]-7-oxo-8-phenylpyrido[2,3-d]pyrimidine-6-carbonitrile] gave a half-maximal inhibitory concentration (IC50) of 20 to 100 nM.

The compound `C=Cc1c(C#N)c(=O)n(-c2ccc(OC)cc2OC)c2nc(Nc3ccccc3OC)ncc12` [Example 160, 8-(2,4-dimethoxyphenyl)-2-((2-methoxyphenyl)amino)-7-oxo-5-vinyl-7,8-dihydropyrido[2,3-d]pyrimidine-6-carbonitrile] gave an IC50 of 20 to 100 nM.

Compound `C=Cc1c(-c2ccccc2Cl)c(=O)n(C)c2nc(Nc3ccccc3OC)ncc12` [Example 161, 6-(2-chlorophenyl)-5-ethenyl-2-[(2-methoxyphenyl)amino]-8-methylpyrido[2,3-d]pyrimidin-7-one] yielded an IC50 of 1000 to 50000 nM.

`C=Cc1c(-c2ccccc2)c(=O)n(C)c2nc(Nc3ccccc3OC)ncc12` [Example 162, 5-ethenyl-2-[(2-methoxyphenyl)amino]-8-methyl-6-phenylpyrido[2,3-d]pyrimidin-7-one]: the concentration for half-maximal inhibition (IC50) lay within 1000 to 50000 nM.

`C=Cc1c(-c2c(Cl)cccc2Cl)c(=O)n(C)c2nc(Nc3ccccc3OC)ncc12` [Example 163, 6-(2,6-dichlorophenyl)-5-ethenyl-2-[(2-methoxyphenyl)amino]-8-methylpyrido[2,3-]pyrimidin-7-one] displayed a 50% inhibitory concentration (IC50) of 1000 to 50000 nM.

For `C=Cc1c(-c2c(Cl)cccc2Cl)c(=O)n(C)c2nc(Nc3cccc(CO)c3)ncc12` [Example 164, 6-(2,6-dichlorophenyl)-5-ethenyl-2-{[3-(hydroxymethyl)phenyl]amino}-8-methylpyrido[2,3-d]pyrimidin-7-one], the 50% inhibitory concentration (IC50) is 100 to 1000 nM.

`C=Cc1c(-c2ccccc2Cl)c(=O)n(C)c2nc(Nc3ccc(N(C)CCN(C)C)cc3)ncc12` [Example 165, 6-(2-chlorophenyl)-2-[(4-{[2-(dimethylamino)ethyl](methyl)amino}phenyl)amino]-5-ethenyl-8-methylpyrido[2,3-d]pyrimidin-7-one] had an IC50 of 100 to 1000 nM.

`C=Cc1c(Cc2ccccc2)c(=O)n(C)c2nc(Nc3ccc(N(C)CCN(C)C)cc3)ncc12` [Example 166, 6-benzyl-2-[(4-{[2-(dimethylamino)ethyl](methyl)amino}phenyl)amino]-5-ethenyl-8-methylpyrido[2,3-d]pyrimidin-7-one] had an IC50 of 1000 to 50000 nM.

In the case of `C=Cc1c(-c2c(Cl)cccc2Cl)c(=O)n(C)c2nc(Nc3ccc(N(C)CCN(C)C)cc3)ncc12` [Example 167, 6-(2,6-dichlorophenyl)-2-[(4-{[2-(dimethylamino)ethyl](methyl)amino}phenyl)amino]-5-ethenyl-8-methylpyrido[2,3-d]pyrimidin-7-one], the IC50 lay in the range of 100 to 1000 nM.

Regarding `C=Cc1c(-c2ccccc2Cl)c(=O)n(C)c2nc(Nc3cccc(OC)c3)ncc12` [Example 168, 6-(2-chlorophenyl)-5-ethenyl-2-[(3-methoxyphenyl)amino]-8-methylpyrido[2,3-d]pyrimidin-7-one], the 50% inhibitory concentration (IC50) lay within 1000 to 50000 nM.

On to `C=Cc1c(-c2ccccc2Cl)c(=O)n(C)c2nc(Nc3cccc(CO)c3)ncc12` [Example 169, 6-(2-chlorophenyl)-5-ethenyl-2-{[3-(hydroxymethyl)phenyl]amino}-8-methylpyrido[2,3-]pyrimidin-7-one], for which the IC50 fell in the range of 100 to 1000 nM.

`C=Cc1c(-c2ccccc2Cl)c(=O)n(C)c2nc(Nc3ccc(N4CCN(C)CC4)cc3OC)ncc12` [Example 170, 6-(2-chlorophenyl)-5-ethenyl-2-{[2-methoxy-4-(4-methylpiperazin-1-yl)phenyl]amino}-8-methylpyrido[2,3-d]pyrimidin-7-one] registered an IC50 of 100 to 1000 nM.

Turning to `C=Cc1c(-c2ccccc2Cl)c(=O)n(C)c2nc(Nc3ccc(OCCN(C)C)cc3)ncc12` [Example 172, 6-(2-chlorophenyl)-2-({4-[2-(dimethylamino)ethoxy]phenyl}amino)-5-ethenyl-8-methylpyrido[2,3-d]pyrimidin-7-one], the 50% inhibitory concentration (IC50) was in the range of 100 to 1000 nM.
